In PubChem BioAssay AID588795 (National Center for Advancing Translational Sciences (NCATS), 2011):
About 1,400 (0.36%) of roughly 390,000 compounds were called active. Inconclusive means that the source gave no clear call. Such entries were picked first, then a sample of the others. Calls come from the whole dose curve; as a rule, active = well fitted inhibition curve with a large enough effect; inconclusive = small, poorly fitted or top-dose-only effect; inactive = no such curve, though single readings can be large or run the other way. Potencies of inconclusive entries are doubtful fits and often do not repeat.

target: Flap endonuclease 1 (Homo sapiens) (UniProt P39748); assay: qHTS Assay for the Inhibitors of Human Flap endonuclease 1 (FEN1).; note: nearly all actives have a fitted effect of over 65% in size; conditions: Recombinant FEN1 flap cleavage, fluorescence, 15 min; series mostly up to 114 µM
Chain of UniProt P39748 (P39748 whole entry, looked up): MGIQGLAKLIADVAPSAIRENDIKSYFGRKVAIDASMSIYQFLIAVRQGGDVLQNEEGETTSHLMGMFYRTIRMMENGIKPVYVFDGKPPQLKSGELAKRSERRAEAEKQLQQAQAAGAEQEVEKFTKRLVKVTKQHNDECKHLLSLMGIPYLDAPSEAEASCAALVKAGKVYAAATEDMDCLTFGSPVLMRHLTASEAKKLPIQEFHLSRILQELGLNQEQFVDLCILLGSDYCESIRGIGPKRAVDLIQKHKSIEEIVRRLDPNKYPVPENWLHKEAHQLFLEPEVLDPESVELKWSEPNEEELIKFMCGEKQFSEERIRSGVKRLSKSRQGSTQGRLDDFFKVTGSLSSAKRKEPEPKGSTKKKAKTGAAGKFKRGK
Summary of the method: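 Compounds are tested as a concentration series against 10 nM FEN1; after a 15 min room-temperature preincubation, 50 nM substrate starts cleavage, with plate reads at 0 and 15 min. Normalized responses are fitted by a Hill equation.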
Potency is the fitted concentration of half-maximal effect; tags give direction and shape of the fitted curve.

| SMILES | Potency |
| --- | --- |
| COc1ccc(OCC(=O)N/N=C2\CCCCc3ccccc32)cc1 | inactive |
| CSCCC(NS(=O)(=O)c1cccc(C(F)(F)F)c1)C(=O)Nc1ccccc1N1CCCC1 (stereo not given) | inconclusive: 89.1 µM [inhibitor, partial curve, poor fit] |
| COc1cc(NC(=O)c2cc(Cl)c(OC)c(Cl)c2)ccc1NC(=O)c1cc2ccccc2o1 | inconclusive: 63.1 µM [inhibitor, partial curve, poor fit] |
| C#CCOCCOCCOCCNc1nc(N2CCN(C(=O)CCCCCCCCCCNC(=O)[C@H](CO)n3cc(CCCSC)nn3)CC2)nc(N2CCN(C(=O)CCCCCCCCCCNC(=O)[C@H](CCCN=C(N)N)n3cc(C[C@@H](C)CC)nn3)CC2)n1 | active: 22.4 µM |
| COc1cccc2c1C(=O)c1c(O)c3c(c(O)c1C2=O)C[C@@](O)(C(=O)CO)C[C@@H]3OC1CC(N)C(O)C(C)O1 (stereo not given in full) | active: 6.31 µM |
| Cc1cccc(N(CC(=O)Nc2ccc(Br)cc2)S(C)(=O)=O)c1C | inconclusive: 17.8 µM [inhibitor, partial curve, poor fit] |
| O=C(Cc1ccccc1Cl)NO | inactive |
| CCN1/C(=C/c2ccc3cccc(C)c3[n+]2CC)Sc2ccccc21 | active: 39.8 µM |
| COc1cc(/C=C2\SC(c3ccc(C)cc3)=NC2=O)ccc1O | inconclusive: 50.1 µM [inhibitor, partial curve, poor fit] |
| Cc1ccc(CSc2nc3ccc(NC(=O)C(C)C)cc3s2)cc1 | inactive |
| CCNC(=S)N/N=C/c1cn(Cc2ccccc2F)c2ccccc12 | inconclusive: 56.2 µM [inhibitor, partial curve, poor fit] |
| Cc1noc(C)c1Cc1c(Cl)cccc1Cl | inactive |
| Clc1ccc(NNc2ccnc3cc(Cl)ccc23)cc1 | inactive |
| CC(=O)Nc1ccc(C=NNc2ccc([N+](=O)[O-])cc2S(=O)(=O)Nc2ccccc2C(=O)O)cc1 | inconclusive: 50.1 µM [inhibitor, partial curve, poor fit] |
| O=C(NN1C(=O)/C(=C/C=C/c2ccccc2)SC1=S)c1ccncc1 | inactive |
| NS(=O)(=O)c1ccc(-c2ccc(/C=C3\SC(=O)NC3=O)o2)cc1 | inconclusive: 39.8 µM [inhibitor, partial curve] |
| O=S(=O)(Nc1ccc(Cl)c(C(F)(F)F)c1)c1cnc[nH]1 | inactive |
| CC(C)CSC1=NSC2=NC(=O)/C(=C\c3cccs3)C(=N)N12 | inactive |
| COc1ccc(-c2nn(-c3ccccc3)cc2/C=C2/SC(=S)N(CCCC(=O)O)C2=O)c(C)c1 | inconclusive: 50.1 µM [inhibitor, partial curve, poor fit] |
| CC(NC(=O)c1sc2ncccc2c1-n1cccc1)c1ccccc1 (stereo not given) | inconclusive: 89.1 µM [inhibitor, partial curve, poor fit] |
| COc1cccc(/C=C/c2ccc3cccc(O)c3n2)c1OC | inconclusive: 89.1 µM [inhibitor, partial curve, poor fit] |
| O=C(O)CC1(CC(=O)Nc2ccccc2N2CCOCC2)CCCC1 | inactive |

| SMILES | Potency |
| --- | --- |
| CC(=O)N(C)c1ccc(/C=C2\C=Cc3ccccc32)cc1 | inactive |
| Cc1ccc(S(=O)(=O)N2CCCc3cc(NC(=O)c4ccccc4Cl)ccc32)cc1 | inconclusive: 79.4 µM [inhibitor, single point] |
| N=c1c(C(=O)NCc2ccc3c(c2)OCO3)cc2c(=O)n3ccccc3nc2n1Cc1cccnc1 | inconclusive: 56.2 µM [inhibitor, partial curve, poor fit] |
| CCOc1ccc(S(=O)(=O)N2CCc3cc(OC)c(OC)cc3C2)cc1 | inconclusive: 89.1 µM [inhibitor, partial curve, poor fit] |
| CC(C)C(=O)N1CCC(n2nccc2NC(=O)CCc2ccccc2)CC1 | inactive |
| CN(C)CCCN1C(=O)c2cccc3c([N+](=O)[O-])ccc(c23)C1=O | active: 50.1 µM |
| O=C(O)c1cccc(Nc2c3ccccc3nc3ccccc23)c1 | inactive |
| CCCCCCC[n+]1ccc(/C=C/c2c(C)[nH]c3ccccc23)c2ccccc21 | active: 44.7 µM |
| N#CC1CCCc2c1[nH]c1ccc([N+](=O)[O-])cc21 (stereo not given) | inconclusive: 79.4 µM [inhibitor, partial curve, poor fit] |
| O=[N+]([O-])c1ccc(/C=N/Nc2nc(-c3ccccc3)c3cc(Br)ccc3n2)o1 | inactive |
| CC(C)c1cc(C(=O)N2CCCC(C(=O)c3ccc4ccccc4c3)C2)on1 (stereo not given) | inconclusive: 35.5 µM [inhibitor, partial curve, poor fit] |
| CCOC(=O)c1cc(-c2ccccc2)nc2nc(N(CC)CC)sc12 | inconclusive: 89.1 µM [inhibitor, partial curve, poor fit] |
| COc1ccc(/C=c2\s/c(=C(/C#N)C(=O)NCc3ccco3)n(-c3ccccc3)c2=O)cc1 | inactive |
| COc1ccc(-c2cc(-c3nnc(COC(=O)c4ccncc4)o3)c3ccccc3n2)cc1OC | inconclusive: 56.2 µM [inhibitor, partial curve, poor fit] |
| N#CCC(=O)Nc1ccc(C(=O)OCC(=O)c2ccc3c(c2)NC(=O)CO3)cc1 | inconclusive: 50.1 µM [inhibitor, partial curve, poor fit] |
| O=C1NC(=O)/C(=C\c2ccc(Br)o2)S1 | inconclusive: 17.8 µM [inhibitor, full curve, poor fit] |
| CCOC(=O)c1sc(N2C(=O)C(O)=C(C(=O)c3ccco3)C2c2ccc(C)o2)nc1C (stereo not given) | inconclusive: 39.8 µM [inhibitor, partial curve, poor fit] |
| CC(=C/c1ccccc1)/C=N/NC(=O)c1ccccn1 | inactive |
| COC(=O)C1=C(C)NC(C)=C(C(=O)OC(C)(C)CN(C)CCC(c2ccccc2)c2ccccc2)C1c1cccc([N+](=O)[O-])c1 (stereo not given) | inconclusive: 0.15 µM [inhibitor, full curve, poor fit] |
| O=C(Nc1ncnc2c1C(c1ccccc1)c1c(ccc3ccccc13)O2)c1ccccc1 (stereo not given) | inconclusive: 89.1 µM [inhibitor, partial curve, poor fit] |
| CCN1/C(=C2\SC(=S)N(Cc3ccccc3)C2=O)Sc2ccccc21 | inactive |
| COc1cc(/C=C/C(=O)/C=C(O)/C=C/c2ccc(O)c(OC)c2)ccc1O | inconclusive: 89.1 µM [inhibitor, single point] |

| SMILES | Potency |
| --- | --- |
| CC(=O)Oc1cccc(/C=C2\Sc3ccccc3C2=O)c1 | inconclusive: 79.4 µM [inhibitor, partial curve, poor fit] |
| COc1ccc(-n2nc3c(N4CCC(C(=O)NCc5ccccc5)CC4)nnc(C)c3c2C)cc1 | inconclusive: 56.2 µM [inhibitor, single point] |
| S=c1[nH]nc(-c2cc(-c3ccccc3)n[nH]2)n1/N=C/c1ccc(Cl)c(Cl)c1 | inconclusive: 56.2 µM [inhibitor, partial curve, poor fit] |
| O=C1OC(c2ccc3ccccc3c2O)(c2ccc3ccccc3c2O)c2ccccc21 | inconclusive: 89.1 µM [inhibitor, single point] |
| CCN(CC)S(=O)(=O)c1cccc(NC(=O)Nc2cccc(C(F)(F)F)c2)c1 | inconclusive: 35.5 µM [inhibitor, partial curve, poor fit] |
| COc1ccccc1NC(=O)C(C)OC(=O)C1CC(=O)N(c2ccc3c(c2)OCCO3)C1 (stereo not given) | inactive |
| CCOc1ccc(N2CC(c3nc4ccccc4n3CCOc3ccc(OC)cc3)CC2=O)cc1 (stereo not given) | inconclusive: 89.1 µM [inhibitor, single point] |
| Cc1c(OCC(=O)NCC(O)c2ccccc2)ccc2c3c(c(=O)oc12)CCC3 (stereo not given) | inactive |
| COc1cc(/C=N\NC(=O)c2ccc(-c3ccccc3)cc2)cc(OC)c1O | inconclusive: 89.1 µM [inhibitor, partial curve, poor fit] |
| Cc1ccc(S(=O)(=O)c2[nH]c(-c3ccccc3)nc2SC(C)C(=O)O)cc1 (stereo not given) | inactive |
| Cc1cccc(/C=C/C(=O)c2cc(Br)ccc(=O)c2O)c1 | inconclusive: 39.8 µM [inhibitor, partial curve] |
| Cn1cnnc1Sc1ccc(C(=O)NCCC(c2ccccc2)c2ccccc2)cc1[N+](=O)[O-] | inactive |
| CN1CCN(C2=C(Cl)C(=O)c3ccccc3C2=O)CC1 | inconclusive: 20 µM [inhibitor, full curve] |
| O=C(Nc1ccccc1)c1oc2ccccc2c1NC(=O)C1CC1 | inactive |
| CN1CCN(C(c2ccc(Br)cc2)c2cc(Cl)c3cccnc3c2O)CC1 (stereo not given) | inconclusive: 39.8 µM [inhibitor, single point] |
| COc1cc(Cl)c(C)cc1NC(=O)C1CCCN(c2ncnc3onc(-c4ccc(F)cc4)c23)C1 (stereo not given) | inactive |
| O=C(O)c1ccccc1NS(=O)(=O)c1ccc(NNC(=S)Nc2ccc(OC(F)F)cc2)c([N+](=O)[O-])c1 | inconclusive: 44.7 µM [inhibitor, partial curve] |
| O=C(CSc1nnc(SCc2ccccc2)s1)N/N=C/C=C/c1ccco1 | inconclusive: 79.4 µM [inhibitor, partial curve] |
| Cc1ccccc1NS(=O)(=O)c1ccc2[nH]cc(C(=O)NC(C)c3ccccc3)c(=O)c2c1 (stereo not given) | inactive |
| Cc1cc(C)c2c(=O)n(CC(=O)N3CCC(N4CCCCC4)CC3)sc2n1 | inconclusive: 22.4 µM [inhibitor, partial curve, poor fit] |
| Nc1ccc2c(c1)C(=NO)c1cc([N+](=O)[O-])ccc1-2 | inconclusive: 39.8 µM [inhibitor, partial curve] |
